Measurements: PubChem BioAssay AID686979 (National Center for Advancing Translational Sciences (NCATS), 2013)
The whole screen tested about 420,000 compounds, of which about 50,000 (12%) were called active. Inconclusive results, whose numbers are uncertain, are shown with a selection of clear calls. Calls follow the shape of the dose curve; as a rule, active = well fitted inhibition curve with a large enough effect; inconclusive = small, poorly fitted or top-dose-only effect; inactive = flat fitted curve, though single readings scatter. Potencies of inconclusive entries are left out as doubtful fits.
% is scaled to controls: 0 for no effect and ±100 for the full control effect; potency is read from the fitted curve at half-maximal effect; tags tell the direction and shape of the fitted curve.

Test: qHTS for Inhibitors of human tyrosyl-DNA phosphodiesterase 1 (TDP1): qHTS in cells in presence of CPT; also: nearly all actives have a fitted effect of over 55% in size
Settings: chicken DT40 Tdp1-/-;hTDP1 cells + 20 nM CPT, ATP luminescence, 48 h; activity change, negative = growth inhibition: at 46.2 µM (top of the series) unless noted
Summary of the method: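 Cell growth measured by CellTiter-Glo luminescence after a minimum 48 h, 37 C compound exposure with 20 nM CPT in Tdp1-knockout DT40 cells stably expressing hTDP1, seeded 400/well; qHTS titration format.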
With `CCOC(=O)c1c(C)c(C(=O)Nc2ccc3c(c2)OCO3)c(C)n1C` the “activity change, negative = growth inhibition” value was inactive: 0.647%.
With `Cc1ccc(OCCC(=O)OCC(=O)NCCc2ccc(Cl)cc2)cc1` the “activity change, negative = growth inhibition” value was inactive: 1.16%.
For `CCCCn1nc(C(=O)N(C)C2CCCCC2)c2ccccc2c1=O`, the Potency was inconclusive [inhibitor, single point].
For `O=C1CCN(Cc2ccc(-c3ccccc3)cc2)CCN1Cc1ccccn1`, the Potency was inconclusive [inhibitor, partial curve, poor fit].
With `CC1Oc2cc3oc4c(O)c(O)ccc4c(=O)c3c(O)c2C1(C)C` (stereo not given) the Potency was inconclusive [inhibitor, single point].
With `COc1ccc(/C=N/NC(=O)CO/N=C(\C)c2cccs2)cc1` the “activity change, negative = growth inhibition” value was inactive: -4.74%.
For `COC(=O)c1ccccc1NC(=O)c1cc(C)nc2c1c(C)nn2-c1ccc(C)cc1`, the “activity change, negative = growth inhibition” value was inactive: -0.263%.
For `COc1cc2c3c(n(C)c(=O)c2cc1OC)-c1cc2c(cc1C3=O)OCO2`, the Potency was inconclusive [inhibitor, full curve].
With `Cc1ccc(C(=O)CN(Cc2ccccc2)C2=NCCS2)cc1` the Potency was inconclusive [inhibitor, single point].
For `CCOc1ccc(CCNc2ccc3nnc(-c4ccccc4)n3n2)cc1OCC`, the Potency was active: 16.4 µM.
In the case of `O=C(Nc1ccc(S(=O)(=O)Nc2ccccc2)cc1)c1ccc(CN2CCOCC2)cc1`, the Potency is reported as inconclusive [inhibitor, single point].
In the case of `Cc1cccc(CC(=O)OCn2nnc3ccccc3c2=O)c1`, the Potency is reported as inconclusive [inhibitor, single point].
For `COc1ccc2oc(C(=O)OCC(=O)Nc3cccc(S(=O)(=O)N4CCOCC4)c3)c(C)c2c1`, the Potency was inconclusive [inhibitor, single point].
With `COc1cccc(C2SCC(=O)N2c2ccc(Br)cc2)c1OC` (stereo not given) the Potency was active: 23.1 µM.
For `COc1ccc(C2CC(=O)c3c([nH]c(C(=O)OC4CCCCCC4)c3C)C2)cc1` (stereo not given), the Potency was inconclusive [inhibitor, single point].
For `CCOc1ccccc1C(=O)Nn1c(C2CCC2)nc2ccccc2c1=O`, the Potency was active: 9.2 µM.
In the case of `COc1ccc(OC)c(NC(=O)CSC2=Nc3ccccc3C3=NC(CC(=O)NCc4ccc(F)cc4)C(=O)N23)c1` (stereo not given), the Potency is reported as inconclusive [inhibitor, single point].
With `O=C(OCCNc1nc(-c2ccccc2)nc2ccccc12)c1ccncc1` the “activity change, negative = growth inhibition” value was inactive: -20%.
With `O=C(CN1CCN(Cc2ccc(Cl)cc2)C1=O)NCCCN1CCN(c2ccc(F)cc2)CC1` the Potency was active: 8.91 µM.
For `COC(=O)c1ccc(/C=C2/SC(=S)N(CCC(=O)NCCCN3CCOCC3)C2=O)cc1`, the Potency was inconclusive [inhibitor, single point].
In the case of `CSc1ccc(/C=C(/NC(=O)c2ccc(C)cc2)C(=O)Nc2cccc(C)c2)cc1`, the Potency is reported as active: 7.31 µM.
With `Cc1ccc2nc(-c3ccc(NC(=O)c4ccccc4S(C)(=O)=O)cc3)sc2c1` the Potency was inconclusive [inhibitor, partial curve].
For `Cc1cccc(N2CCN(C(=O)c3ccc(Cl)c(NC4=NC5CS(=O)(=O)CC5S4)c3)CC2C)c1` (stereo not given), the Potency was inconclusive [inhibitor, single point].
In the case of `N#Cc1c(NC(=O)COC(=O)c2nccnc2N)sc2c1CCCC2`, the “activity change, negative = growth inhibition” value is reported as inactive: 1.09%.
In the case of `CCOC(=O)c1cn(-c2nc(-c3ccc(Cl)c(Cl)c3)cs2)c2c(F)c(N3CCOCC3)c(F)cc2c1=O`, the Potency is reported as inconclusive [inhibitor, single point].
In the case of `O=C(Nc1ccccc1O)c1cc(S(=O)(=O)N2CCCC2)ccc1Cl`, the Potency is reported as inconclusive [inhibitor, single point].
In the case of `O=C(N/N=C/c1cccc(Oc2ccc([N+](=O)[O-])cc2[N+](=O)[O-])c1)c1cncc(Br)c1`, the Potency is reported as inconclusive [inhibitor, single point].
With `Cc1c(C(=O)C(=O)N2CCN(Cc3ccc4c(c3)OCO4)CC2)c2ccccc2n1C` the Potency was inconclusive [inhibitor, single point].
For `O=C(c1cn(C2CCCN(Cc3cccc(Oc4ccccc4)c3)C2)nn1)N1CCCC1` (stereo not given), the Potency was inconclusive [inhibitor, single point].
For `Cc1noc(C)c1-c1ccc2ncnc(Nc3ccc(F)cc3)c2c1`, the Potency was inconclusive [inhibitor, single point].
For `O=C(CCN1C(=O)/C(=C/c2ccccc2Cl)SC1=S)NCCCN1CCOCC1`, the Potency was inconclusive [inhibitor, single point].
For `COc1ccc(OCC(=O)NNC(=O)Cn2c(=O)cnc3ccccc32)cc1`, the “activity change, negative = growth inhibition” value was inactive: 2.89%.
For `CCCCN(C)C(=O)c1nc2ccccn2c1CN1CCC[C@H]1C(=O)OC`, the Potency was inconclusive [inhibitor, single point].
For `O=C(C[C@@H]1C/C=C\C[C@H](NC(=O)OCC2c3ccccc3-c3ccccc32)C(=O)OC[C@H]2CCCN2C1=O)N[C@H](CO)Cc1ccccc1`, the Potency was active: 4.61 µM.
With `COc1cc(C(=O)NC2CCN(CC(=O)Nc3cccc(C)c3C)CC2)cc(OC)c1OC` the Potency was active: 18.4 µM.
For `CC(=O)c1sc(NC(=O)c2ccc(COc3ccccc3Cl)o2)nc1C`, the “activity change, negative = growth inhibition” value was inactive: 3.23%.
With `Cc1ccccc1-c1cnc(C(O)c2ccc(Cl)cc2C)[nH]1` (stereo not given) the Potency was inconclusive [inhibitor, single point].
With `CC(=O)Nc1cc(-c2ccc(F)cc2)cn2c(-c3ccc(F)c(Cl)c3)cnc12` the Potency was inconclusive [inhibitor, single point].
For `CCC(CN)CC(C)CCNCC(O)CNCC(C)CC(CC)CN` (stereo not given), the “activity change, negative = growth inhibition” value was inactive: -1.25%.
In the case of `Cc1cc(C)cc(NC(=O)OCCN2CCN(Cc3ccccc3)CCC2=O)c1`, the “activity change, negative = growth inhibition” value is reported as inactive: -22.9%.
For `CCCC1CCC(c2ccc(OCC)cc2)=CC1=O` (stereo not given), the Potency was inconclusive [inhibitor, single point].
For `CCCNc1nc(Nc2ccc(C)cc2)nc(N2CCCC2)n1`, the Potency was active: 23.1 µM.
For `C=CCNc1nc(NCC)nc(N2CCOCC2)n1`, the “activity change, negative = growth inhibition” value was inactive: -26.4%.
In the case of `CC1Oc2ccccc2C=C1/C=N/Nc1ccc(C(=O)O)cc1` (stereo not given), the Potency is reported as inconclusive [inhibitor, single point].
With `NC(=O)c1cc(C(=O)c2cccc(Cl)c2Cl)c[nH]1` the Potency was inconclusive [inhibitor, single point].
With `CN(C)c1ccc(S(=O)(=O)N2CCCCC2)cc1NC(=O)C1=NN(c2ccccc2)C(=O)CC1` the Potency was inconclusive [inhibitor, single point].
With `Cn1c(NC(=O)c2ccc(F)cc2)nc2ccccc21` the Potency was inconclusive [inhibitor, single point].
In the case of `CC(=O)Nc1c(Br)cc2c(c1Br)Cc1cc([N+](=O)[O-])ccc1-2`, the Potency is reported as inconclusive [inhibitor, single point].
For `CC(=O)C1=CCC(c2ccc(Cl)cc2)N(S(=O)(=O)c2ccccc2C)C1` (stereo not given), the Potency was active: 29.1 µM.
For `Cc1cc(C(=O)NCC2CCC3(CCN(Cc4ccc(F)cc4)CC3)O2)n(C)n1` (stereo not given), the activity change, negative = growth inhibition was inactive: -3.97% [at 9.04 µM].
In the case of `CCOc1ccc(OCC)c(NC(=O)CCc2nc3cccnc3n2Cc2cccs2)c1`, the Potency is reported as inconclusive [inhibitor, single point].
In the case of `Cn1c(=O)c([N+](=O)[O-])c(NCCc2ccccc2)c2ccccc21`, the Potency is reported as inconclusive [inhibitor, single point].
For `COc1ccc(Cl)cc1-c1cc(C(=O)Nc2ccccc2)[nH]n1`, the Potency was inconclusive [inhibitor, single point].
For `CCn1cc(S(=O)(=O)N2CCN(c3ccc(Cl)cc3)CC2)cn1`, the Potency was inconclusive [inhibitor, single point].
For `COCCCn1cc(CN2CC(N3CCN(C)CC3)CS2(=O)=O)nn1` (stereo not given), the “activity change, negative = growth inhibition” value was inactive: -7.34%.
With `CCCCN(C=O)c1c(CC)nc2ccc(C(=O)NCc3ccc4c(c3)OCO4)cn12` the Potency was inconclusive [inhibitor, single point].
For `CCN(CC)C(=O)CSc1nnc([C@@H](N)C(C)C)o1`, the “activity change, negative = growth inhibition” value was inactive: 5.86%.
In the case of `CCOC(=O)c1cccc(NC(=O)CC2C(=O)N(c3ccc(C)cc3)C(=O)N2Cc2cccc(OC)c2)c1` (stereo not given), the Potency is reported as active: 18.4 µM.
In the case of `COc1cc(Cl)c(C)cc1NC(=O)CSc1nc2c(c(=O)[nH]1)CCCC2`, the Potency is reported as inconclusive [inhibitor, single point].
For `CC(C)OC(=O)NS(=O)(=O)c1cccc([N+](=O)[O-])c1`, the “activity change, negative = growth inhibition” value was inactive: 7.43%.
With `COC(=O)C1=C(C)N(Cc2ccccc2)C(=O)N[C@H]1c1cccc(C(F)(F)F)c1` the Potency was inconclusive [inhibitor, partial curve].
With `CC(C)Oc1ccc(Cn2c(=O)sc3ccccc32)cc1` the “activity change, negative = growth inhibition” value was inactive: -3.24%.
In the case of `O=C(NC(=S)NC1CCSC1=O)c1ccccc1F` (stereo not given), the “activity change, negative = growth inhibition” value is reported as inactive: 5.66%.
In the case of `COc1ccc(CCNC(=O)C2CCN(C(=O)c3ccccc3C)CC2)cc1`, the Potency is reported as inconclusive [inhibitor, partial curve].
With `COc1ccc([N+](=O)[O-])cc1N(CC(O)CN(CC(C)C)CC(C)C)S(=O)(=O)c1ccccc1` (stereo not given) the Potency was inconclusive [inhibitor, single point].
In the case of `Fc1ccc2c(-c3cccc(C(F)(F)F)c3)c(-c3ccccc3)ncc2c1`, the Potency is reported as inconclusive [inhibitor, single point].
For `Cc1cc(Cl)c2oc(C(=O)NCC(C)(C)N3CCOCC3)c(C)c2c1`, the Potency was active: 23.1 µM.
For `CC1(C)CC(=O)C=C(c2cccc(O)c2)C1`, the “activity change, negative = growth inhibition” value was inactive: -26.3%.
In the case of `COc1cc(CCC(=O)Nc2ccc(S(=O)(=O)N3CCCC3)cc2)cc(OC)c1OC`, the “activity change, negative = growth inhibition” value is reported as inactive: -24.9%.
For `N#Cc1ccc(-c2nc3ccc(Cl)cn3c2Cc2ccsc2)cc1`, the Potency was inconclusive [inhibitor, single point].
